Reference: paper PMC4336329 (PLoS ONE, 2015)
Among all 310,000 compounds or so, about 2,200 (0.71%) showed an effect of 50% or more. The effect is printed as a negative number. This is one part of the list.

Molecular target: human ether-à-go-go-related gene (hERG) potassium channel (human, UniProt Q12809)
Assay: primary screen, population patch clamp on CHO cells stably expressing hERG
Protocol: Briefly, Chinese hamster ovary (CHO) cells stably expressing the hERG channel were dislodged from tissue culture flasks and dispensed into PPC plates. […] During the recording, background leak currents were estimated by a 100 ms step to -80 mV from an initial holding potential of -70 mV and subtracted from the subsequent current measurement. The campaign was conducted in two phases using slight differences in recording protocol. In the first phase, the initial voltage pulse used a 100 ms step to -30 mV from a holding potential of -70 mV, a 2 s conditioning step to +25 mV, and a 2 s test step to -30 mV. During the second phase of the screen, the potential during the conditioning step was raised to +45 mV. In both phases of the campaign, a secondary voltage pulse was applied using the same parameters as the second phase initial pulse. The initial and secondary pulses were applied in the absence of compound, and upon application of 1 μM and 10 μM test concentrations. Small molecule effects on hERG current density were quantified by […].

human ether-à-go-go-related gene (hERG) potassium channel, sequence (Q12809 whole entry, looked up): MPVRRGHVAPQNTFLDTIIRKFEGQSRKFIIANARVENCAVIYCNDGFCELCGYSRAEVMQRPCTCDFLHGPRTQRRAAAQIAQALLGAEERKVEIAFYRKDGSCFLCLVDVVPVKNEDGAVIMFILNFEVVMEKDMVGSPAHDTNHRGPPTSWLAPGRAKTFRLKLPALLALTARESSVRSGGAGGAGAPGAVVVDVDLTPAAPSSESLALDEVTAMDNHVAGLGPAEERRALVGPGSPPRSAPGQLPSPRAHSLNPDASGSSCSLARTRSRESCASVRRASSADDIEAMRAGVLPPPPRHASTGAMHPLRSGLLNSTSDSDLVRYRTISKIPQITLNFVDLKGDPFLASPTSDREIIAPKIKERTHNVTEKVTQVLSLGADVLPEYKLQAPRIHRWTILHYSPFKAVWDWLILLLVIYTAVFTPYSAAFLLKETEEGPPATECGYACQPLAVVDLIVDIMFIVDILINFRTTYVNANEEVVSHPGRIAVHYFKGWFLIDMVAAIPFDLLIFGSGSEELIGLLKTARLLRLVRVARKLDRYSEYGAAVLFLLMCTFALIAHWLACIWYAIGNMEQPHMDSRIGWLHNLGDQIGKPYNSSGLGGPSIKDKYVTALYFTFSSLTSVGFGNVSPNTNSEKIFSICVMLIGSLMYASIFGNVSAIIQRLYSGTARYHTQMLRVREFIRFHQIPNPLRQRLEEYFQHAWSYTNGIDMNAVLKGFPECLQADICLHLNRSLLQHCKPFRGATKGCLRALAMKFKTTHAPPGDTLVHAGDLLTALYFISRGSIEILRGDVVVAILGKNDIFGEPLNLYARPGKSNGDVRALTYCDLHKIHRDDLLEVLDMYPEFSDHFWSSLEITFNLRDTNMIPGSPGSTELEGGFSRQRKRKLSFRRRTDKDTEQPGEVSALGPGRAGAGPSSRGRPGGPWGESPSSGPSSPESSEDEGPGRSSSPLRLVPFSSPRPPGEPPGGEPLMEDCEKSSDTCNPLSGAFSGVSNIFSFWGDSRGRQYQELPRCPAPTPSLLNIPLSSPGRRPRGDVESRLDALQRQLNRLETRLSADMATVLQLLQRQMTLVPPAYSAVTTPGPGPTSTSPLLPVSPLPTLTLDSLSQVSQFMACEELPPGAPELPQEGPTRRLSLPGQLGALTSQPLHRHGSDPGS

Structure (SMILES) | hERG current change (%, negative = inhibition) at 1uM
Cn1c(=O)[nH]c(=O)c2c1nc(Br)n2C/C=N/Nc1ccccc1 | -1.05%
CCCCCC(=O)Nc1ccc(Cc2ccncc2)cc1 | 6.58%
CCOc1ccccc1/C=N/NC(=O)CNC(=O)COc1ccccc1 | 6.6%
COC1=C(C)C(O)=C(C(=O)/C=C/c2ccccc2)C(=O)C1(C)C | -0.663%
COc1ccc(CCNC(=O)Cn2nnc(-c3cccc(OC)c3OC)n2)cc1OC | 8.26%
CC(=O)O/N=C/c1c(C)c(C=O)n2ccccc12 | 9.71%
C=CCOc1c(CNc2ccc3[nH]c(=O)[nH]c3c2)cccc1OC | 11.7%
N/C(=N\OC(=O)CCc1ccccc1)c1ccc(Br)cc1 | 16%
COc1cc(Br)cc2cc(C(=O)N3CCN(c4ccccn4)CC3)c(=O)oc12 | -14.2%
O=[N+]([O-])c1ccc(CCn2ccnc2)cc1 | 8.67%
CN(CC(=O)N1CCN(c2ccc(F)cc2)CC1)S(=O)(=O)c1ccc2c(c1)c(=O)n(C)c(=O)n2C | 8.98%
COc1cccc(OCCNC(=O)c2cc([N+](=O)[O-])cc([N+](=O)[O-])c2)c1 | 9.35%
COc1cc(/C=C/C(=O)O)ccc1OS(=O)(=O)c1ccc(C)cc1 | 9.33%
CN1CCN(CC(=O)Nc2ccc(Oc3ccccc3)cc2)CC1 | -18.4%
COc1ccc(/C=C(\C#N)C(=O)N2CCOCC2)cc1Br | 3.88%
COc1ccc(C(=O)NCc2nnc(SCC(=O)N3CCc4ccccc43)o2)cc1OC | 14.6%
CCN1CCN(CCOCCOc2ccccc2-c2ccccc2)CC1.O=C(O)C(=O)O | 9.38%
COc1nc(OC)nc(N2CCC(C(=O)NCc3ccc(F)cc3)CC2)n1 | -27.3%
O=C(CNC(=O)c1ccco1)OCc1ccc(C(=O)Oc2ccccc2)cc1 | 5.49%
O=C(NNC(=O)c1ccccc1F)c1ccco1 | 9.46%
O=C(NCCCN1CCN(c2ccccc2F)CC1)C1CC(=O)N(C2CCCC2)C1 (stereo not shown) | 7.06%
COc1ccccc1-c1nc(SCC(=O)NCC2CCCO2)c2c(=O)n(C)c(=O)n(C)c2n1 (stereo not shown) | 8.47%

Structure (SMILES) | hERG current change (%, negative = inhibition) at 1uM
COc1cc(/C=N\NC(=O)CC#N)ccc1OC/C=C/c1ccccc1 | 9.19%
Cc1nc(N2N=C(c3ccc(Cl)cc3)CC2c2ccco2)sc1C(=O)N(C)C (stereo not shown) | 8.62%
CC(C)CCNC(=O)C(c1cccnc1)N(Cc1ccccc1)C(=O)Cn1nnc2ccccc21 (stereo not shown) | -5.55%
CC1CN(S(=O)(=O)c2cccc(C(=O)NNC(=O)C(C)Oc3ccccc3F)c2)CC(C)O1 (stereo not shown) | -0.165%
CCOc1ccc(C(C)C)cc1S(=O)(=O)N1CCN(C(=O)c2ccco2)CC1 | 14.5%
Cc1ccc(C(=O)OCc2c(C)noc2C)cc1NC(=O)c1ccco1 | 4.25%
CCOC(=O)C1=C(C)NC(=O)NC1c1ccccc1OCc1c(F)cccc1Cl (stereo not shown) | 1.29%
O=S(=O)(c1ccc(S(=O)(=O)n2cnc3ccccc32)cc1)N1CCCCCC1 | 13%
CCOc1ncccc1C(=O)Nc1cc(S(=O)(=O)N2CCOCC2)ccc1N1CCCC1 | -10%
CCC(=O)c1c[nH]c(C(=O)NCc2ccco2)c1 | 1.3%
Cc1cc([N+](=O)[O-])ccc1NCc1ccccc1 | 4.76%
CCCn1nc2cc(C(=O)NC3CCc4ccccc43)ccc2c1OCC (stereo not shown) | 16.8%
Fc1cccc(C2CC(c3cccc(Br)c3)Nc3nnnn32)c1 (stereo not shown) | 10.6%
O=C(Nc1nc2c(F)cc(F)cc2s1)C1CCN(C(=O)c2ccc(F)cc2)CC1 | 11.4%
O=c1cc(-c2ccc(Cl)cc2)oc(=O)[nH]1 | 13.1%
O=C(NCCCn1ccnc1)Nc1cccc(Cl)c1 | 13.1%
O=C1NC(c2ccc(-c3ccccc3[N+](=O)[O-])o2)C(C(=O)c2ccc(F)cc2)C(O)(C(F)(F)F)N1 (stereo not shown) | 14.2%
O=C(OCC(=O)N1CCCCC1)c1c[nH]c(=O)[nH]c1=O | 3.75%
COc1ccc(NC(=O)C(c2ccccc2)N2CCN(c3ccccn3)CC2)cc1Cl (stereo not shown) | -5.81%
COc1ccc(NC(=O)CN(C)C(=O)C2CC(=O)N(Cc3ccc(C)cc3)C2)cc1 (stereo not shown) | 16.7%
Cc1cc(NC(=O)c2cc(-c3cccc(OCC(C)C)c3)nc3ccccc23)no1 | 13.3%
